Measured values published in the CheMixHub viscosity set.
± gives the uncertainty stated by the source. Not every entry of the source has a single result; some have several. This is not the full list of results. The source may hold further records. Values given together are repeats (runs, samples, wells, individuals or studies).

Conditions: 298.15 K; 101.33 kPa

In the case of `CC(Cl)(Cl)Cl`, the viscosity is reported as 0.7917 ± 0.0077 mPa·s, 0.7956 ± 0.0077 mPa·s, 0.7923 ± 0.0077 mPa·s, 0.7912 ± 0.0077 mPa·s, 0.7918 ± 0.0077 mPa·s.
